Out of some 340,000 compounds screened, about 170 (0.05%) were called active. Roughly 26% stayed inconclusive and do not appear here. Calls follow the shape of the dose curve; as a rule, active = well fitted inhibition curve with a large enough effect in the signal ratio, with a control signal flat (not every such curve was filed as active); inconclusive = small, poorly fitted or top-dose-only effect, or effect the other way, or a change in a side signal; inactive = flat fitted curve, though single readings scatter; the % refers to the signal ratio. This is a selection; strong and weak results do not stand in their true shares.
Potency is read from the fitted curve at half-maximal effect.

The experiment is described as follows: qHTS Assay to Find Inhibitors of Chronic Active B-Cell Receptor Signaling.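 As to activity change, negative = inhibition: plate controls were basal doxycycline-induced cells for no effect and cells given 10 µM MG132 for full effect.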 The settings on record: ABC-DLBCL IkBa-CBG/CBR reporter, luminescence ratio (green luciferase fused to IkBa over red control in TMD8 lymphoma cells), 4 h; series mostly up to 46.1 µM; activity change, negative = inhibition: at the top concentration. An outline of the steps:
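Doxycycline induced both beetle luciferases in TMD8 lymphoma cells; IKK-driven degradation limits the IkappaBalpha-fused green signal, while red luminescence normalises for cell number and nonspecific effects. Compounds tested up to 46 uM, 4 hrs.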
For `C=CC[C@H](CC(=O)N(CCO)Cc1ccccc1)C(=O)NCCOC(=O)[C@@H](CC=C)CC(=O)OC(C)(C)C`, the “activity change, negative = inhibition” value was inactive: 2.24%. Consider `COc1ccc(NC(=O)CN2C(=O)CSc3ccc(S(=O)(=O)N4CCCC4)cc32)cc1OC`, for which the “activity change, negative = inhibition” value is inactive: -0.204%. In the case of `OCC[C@H]1C[C@H](O)[C@@H](O)[C@]2(OCc3ccccc32)O1`, the “activity change, negative = inhibition” value was inactive: -1.43%. In the case of `CC(=O)Nc1ccc(S(=O)(=O)NCCS(=O)(=O)N2CCN(c3ccccc3F)CC2)cc1`, the “activity change, negative = inhibition” value is inactive: -3.36%. Consider `N#C/C(=C\c1cccc(NC(=O)c2ccccc2Cl)c1)C(=O)NCCc1ccccc1`, for which the Potency was active: 20.6 µM. Regarding `CCc1ccc(/C=C2/SC(=S)N(CCC(=O)NCCCN3CCOCC3)C2=O)cc1`, the “activity change, negative = inhibition” value is inactive: -5.1%. On the same count and under the same terms, next, `CC(C)(C)OC(=O)C[C@H]1C/C=C\C[C@@H](CC(=O)N(CCO)Cc2ccccc2)C(=O)NC[C@@H](c2ccccc2)OC1=O`: inactive: -1.02%. As for `CC1CCCCN1Cc1c(O)ccc2c(=O)c(-c3ccc(Cl)cc3)coc12` (centres undefined), the “activity change, negative = inhibition” value was inactive: 4.75%. Same read-out and setting: the figure for `COc1ccc(/C=C2/SC(=O)N(CC(=O)NCCC(C)C)C2=O)cc1OC` is inactive: -9.75%; for `C[C@@H]1COC(=O)[C@@H](CC(=O)OC(C)(C)C)C/C=C\C[C@@H](CC(=O)NCCO)C(=O)N1` it is inactive: -0.142%. In the case of `Cc1ccc(S(=O)(=O)/N=C2/NC(=O)/C(=C\c3ccccc3)S2)cc1`, the “activity change, negative = inhibition” value was inactive: -1.19%. On to `C=CCNC(=S)NNC(=O)COc1cccc(Cl)c1`, for which the Potency was active: 17.8 µM. Take `C[C@@H]1O[C@@H](Oc2c(-c3cc(O)c(O)c(O)c3)oc3cc(O)cc(O)c3c2=O)[C@H](O)[C@H](O)[C@H]1O`: the “activity change, negative = inhibition” value was inactive: -1.41%. As to `COc1cc2cc(C(=O)N3CCOCC3)cc(-c3ccc(C)cc3)c2cc1OC`, the Potency was active: 15.8 µM. As for `OCC[C@@H]1C[C@H](O)[C@@H](O)[C@@]2(CCc3ccccc3CO2)O1`, the “activity change, negative = inhibition” value is inactive: -0.223%. Take `CC(C)[C@H](NC(=O)N1c2ccccc2NC(=O)[C@@H]1C(C)C)C(=O)N[C@@H](Cc1ccccc1)C(=O)O`: the “activity change, negative = inhibition” value is inactive: -12.9%.

For the compound `OCC[C@@H]1C[C@@H](O)[C@H](O)[C@@]2(CCc3ccccc3CO2)O1`, the “activity change, negative = inhibition” value is inactive: -6.34%.

Consider `CS(=O)(=O)c1ccccc1-c1csc(N2CCC(C(N)=O)CC2)n1`, for which the “activity change, negative = inhibition” value is inactive: 5.37%. On to `OCc1ccnc2c(O)cccc12`, for which the Potency is active: 6.31 µM.

Take `O=S(=O)(c1ccc2c(c1)OCCO2)C1CCC(S(=O)(=O)c2c(F)cccc2F)CC1` (centres undefined): the “activity change, negative = inhibition” value was inactive: 0.317%. Take `C[C@@H]1C[C@H]2[C@@H]3CCC4=CC(=O)C=C[C@]4(C)[C@@]3(F)[C@@H](O)C[C@]2(C)[C@@]1(O)C(=O)CO`: the “activity change, negative = inhibition” value is inactive: -3.15%. In the case of `C[C@@H]1CC[C@@]2(O[C@H](CCO)C[C@@H](O)[C@@H]2O)O1`, the “activity change, negative = inhibition” value is inactive: -0.374%. `COc1cccc(OCC(O)CN2CCN(c3ccccc3)CC2)c1` (centres undefined): the “activity change, negative = inhibition” value is inactive: -1.9%. Turning to `COc1ccc(/C=C2/SC(c3ccc(C)cc3)=NC2=O)cc1OC`, the “activity change, negative = inhibition” value was inactive: -4.4%. As for `CC1=NN(Cc2ccccc2)C(=O)C1C(c1ccc(Cl)cc1)C(C#N)C#N` (centres undefined), the Potency is active: 20.6 µM. `C=CC[C@@H](CC(=O)OC(C)(C)C)C(=O)OC[C@@H]1CCCN1C(=O)[C@H](CC=C)CC(=O)NCCO`: the “activity change, negative = inhibition” value was inactive: 5.57%. Regarding `O=C(Nc1cccc(F)c1)/C(=C\c1ccco1)NC(=O)c1ccco1`, the “activity change, negative = inhibition” value is inactive: -1.78%.

For the compound `COc1cc(Nc2c3c(nc4ccccc24)CCC3)cc(OC)c1OC`, the Potency was active: 20 µM. Regarding `N#Cc1ccccc1NC(=O)CSC1=Nc2ccccc2C2CC=NN12` (centres undefined), the Potency was active: 20 µM. Regarding `CCn1c(C)cc(/C=C2\NC(=O)N(CC(=O)Nc3cccc(C)c3)C2=O)c1C`, the “activity change, negative = inhibition” value was inactive: 4.16%. For the compound `Cc1cc(=O)oc2cc(OS(C)(=O)=O)ccc12`, the “activity change, negative = inhibition” value was inactive: -1.66%. Turning to `COc1ccc(C2=Nn3c(nnc3-c3ccc(OC)cc3)SC2)cc1`, the Potency was active: 6.51 µM. With `Clc1ccc(C2=Nn3c(nnc3-c3cc(-c4ccccc4)n[nH]3)SC2)cc1`, the Potency was active: 5.17 µM. Turning to `COC(=O)C1=C(C)N(Cc2ccccc2)C(=NCc2cc(OC)c(OC)c(OC)c2)N[C@H]1c1cccc(F)c1`, the “activity change, negative = inhibition” value is inactive: -1.63%. `COc1ccc2cc(C(C)C(=O)O)ccc2c1` (centres undefined): the “activity change, negative = inhibition” value is inactive: 18.8%. As to `OCC[C@H]1C[C@@H](O)[C@H](O)[C@@]2(OCc3ccccc32)O1`, the “activity change, negative = inhibition” value is inactive: -4.9%. Regarding `COc1ccc(/C=C2/CCc3ccccc3C2=O)cc1OC`, the “activity change, negative = inhibition” value is inactive: -29%. For `Cc1ccccc1/C=C/c1nc2ccccc2c(=O)n1Cc1ccccc1`, the “activity change, negative = inhibition” value is inactive: 0.863%. Still for that read-out and setting: next, `CC(/C=C/C1(O)C(C)CC(O)CC1(C)C)OC1OC(CO)C(O)C(O)C1O` (centres undefined): inactive: 4.79%; `Cc1ccc(NC(=O)c2ccc(=O)n(CC(=O)Nc3ccccc3)n2)cc1`: inactive: 2.4%; `C[C@H]1COC(=O)[C@@H](CC(=O)OC(C)(C)C)C/C=C\C[C@@H](CC(=O)N[C@H](CO)Cc2ccccc2)C(=O)N1`: inactive: 0.673%. The same measure, in the same setting: the figure for `CCOc1cccc(N2C(=O)CC(N(CCc3ccc(OC)c(OC)c3)C(=O)CC)C2=O)c1` (centres undefined) is inactive: -2.15%; for `O=C(N/C(=C\c1ccc(Br)cc1)C(=O)N1CCCC1)c1ccccc1F` it is inactive: -3.57%; for `C[C@@H]1O[C@@H](OC[C@@H]2O[C@H](Oc3c(-c4ccc(O)cc4)oc4cc(O)cc(O)c4c3=O)[C@@H](O)[C@H](O)[C@H]2O)[C@H](O)[C@H](O)[C@H]1O` it is inactive: 4.34%.
